The whole screen tested about 350,000 compounds, of which about 31,000 (8.9%) were called active. The shares of active, inactive and inconclusive entries below differ from those in the screen. The call rests on the fitted dose curve; in most records, active means well fitted inhibition curve with a large enough effect; inconclusive means small, poorly fitted or top-dose-only effect; inactive means no such curve, though single readings can be large or run the other way. Where the call is inconclusive, the potency comes from a doubtful curve fit.
target: Histone-lysine N-methyltransferase EHMT2 (Homo sapiens) (UniProt Q96KQ7); experiment: qHTS Assay for Inhibitors of Histone Lysine Methyltransferase G9a; conditions: G9a H3K9 monomethylation, AlphaScreen, 2 h; activity, negative = inhibition: at 59 µM (top of the series) unless noted; further: nearly all actives have a fitted effect of over 75% in size
UniProt Q96KQ7, sequence (Q96KQ7 whole entry, looked up): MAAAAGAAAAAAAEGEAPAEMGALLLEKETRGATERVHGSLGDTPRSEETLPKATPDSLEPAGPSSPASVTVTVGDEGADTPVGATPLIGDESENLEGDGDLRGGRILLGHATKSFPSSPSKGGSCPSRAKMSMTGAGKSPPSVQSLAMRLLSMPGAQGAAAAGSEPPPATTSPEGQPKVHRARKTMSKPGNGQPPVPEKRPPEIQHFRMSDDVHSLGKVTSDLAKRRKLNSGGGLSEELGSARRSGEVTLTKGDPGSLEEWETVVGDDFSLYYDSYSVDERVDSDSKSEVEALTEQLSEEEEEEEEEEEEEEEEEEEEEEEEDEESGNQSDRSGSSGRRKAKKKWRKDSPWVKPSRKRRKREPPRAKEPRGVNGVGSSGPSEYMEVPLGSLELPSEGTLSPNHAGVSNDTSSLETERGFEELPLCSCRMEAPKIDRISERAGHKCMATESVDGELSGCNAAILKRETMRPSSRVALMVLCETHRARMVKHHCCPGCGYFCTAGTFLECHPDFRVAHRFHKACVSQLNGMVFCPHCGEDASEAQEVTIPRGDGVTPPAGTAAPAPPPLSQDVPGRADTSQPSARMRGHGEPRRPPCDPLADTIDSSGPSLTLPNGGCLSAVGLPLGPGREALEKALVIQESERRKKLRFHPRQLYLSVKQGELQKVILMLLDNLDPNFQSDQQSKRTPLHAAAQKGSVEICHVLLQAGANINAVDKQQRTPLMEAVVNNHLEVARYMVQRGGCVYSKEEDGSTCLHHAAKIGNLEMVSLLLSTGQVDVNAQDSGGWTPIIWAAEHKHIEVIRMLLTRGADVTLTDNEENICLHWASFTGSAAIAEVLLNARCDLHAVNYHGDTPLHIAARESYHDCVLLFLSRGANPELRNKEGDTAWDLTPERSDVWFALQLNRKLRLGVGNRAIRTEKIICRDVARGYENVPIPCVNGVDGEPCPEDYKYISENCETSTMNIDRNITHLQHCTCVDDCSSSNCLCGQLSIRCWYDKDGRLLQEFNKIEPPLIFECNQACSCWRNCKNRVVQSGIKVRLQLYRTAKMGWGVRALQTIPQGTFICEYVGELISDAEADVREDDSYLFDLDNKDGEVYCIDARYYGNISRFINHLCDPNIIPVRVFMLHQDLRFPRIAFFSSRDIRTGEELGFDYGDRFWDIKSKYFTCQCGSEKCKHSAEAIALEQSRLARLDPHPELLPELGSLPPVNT
How it was run: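 Quantitative HTS format: methyltransferase activity on a biotin-tagged H3K9 peptide is measured by AlphaScreen, using a rabbit anti-monomethyl-H3K9 antibody with streptavidin donor and anti-IgG acceptor beads. Final levels are 20 nM enzyme, 500 nM peptide, 20 uM SAM; 2 h RT.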
On the % scale 0 is the no-effect control and ±100 the full control effect; potency means the concentration at half of the fitted maximal effect; tags describe the fitted curve by direction and shape.

| Structure (SMILES) | Potency | activity, negative = inhibition |
| --- | --- | --- |
| COc1ccc(N2CCN(C(=O)Cn3c(-c4cccs4)cc4ccccc43)CC2)cc1 | inconclusive: 10 µM [inhibitor, partial curve] |  |
| C(=C\c1ccccc1)/CSc1nc2ncccc2[nH]1 |  | inconclusive: -68.5% [inhibitor] |
| Cc1c(C(=O)Nc2c(F)cccc2F)sc2ncn(CC(=O)N3CCCCC3)c(=O)c12 | inactive |  |
| COc1ccccc1C(=O)C1CCCN(C(=O)CSc2ccccn2)C1 (stereo unspecified) | inconclusive: 35.5 µM [inhibitor, single point] |  |
| Oc1c(/C=N/Nc2cccc3cccnc23)ccc2ccccc12 | inconclusive: 3.16 µM [inhibitor, full curve, poor fit] |  |
| Cc1noc(C)c1COC(=O)CCc1nc2ccccc2c(=O)[nH]1 | inconclusive: 89.1 µM [inhibitor, single point] |  |
| Cc1c(C(=O)Nc2nc(-c3ccccn3)cs2)oc2ccccc12 | inconclusive: 2.51 µM [inhibitor, partial curve, poor fit] |  |
| CC(C)Oc1ccccc1C1CC(=O)Nc2cc3c(cc21)OCO3 (stereo unspecified) | inconclusive: 39.8 µM [inhibitor, single point] |  |
| CCCCCCC(O)(c1ccc(OC)cc1)C(CN1CCOCC1)c1ccccc1 (stereo unspecified) | inconclusive: 0.631 µM [inhibitor, partial curve, poor fit] |  |
| O=C(Cc1ccc2c(c1)OCCO2)Nc1ccc(Cl)c(S(=O)(=O)N2CCOCC2)c1 |  | inactive: -10.1% [at 2.33 µM] |
| Cc1ccc(C(=O)Nc2ccc3oc(-c4cc(Br)ccc4Cl)nc3c2)cc1 | inactive |  |
| COc1cc(OC)c(N(C)C(=O)CSc2c3c(nc4ccc(Cl)cc24)CCCC3)cc1Cl | inconclusive: 22.4 µM [inhibitor, partial curve, poor fit] |  |
| COC(=O)c1sc(NC(=S)NC(=O)c2ccc(F)cc2)nc1C | inactive |  |
| CC(C)(C)c1ccc(/C=C/C(=O)N2CCOCC2)cc1 | inconclusive: 0.141 µM [inhibitor, full curve, poor fit] |  |
| COc1ccc(C2C=C(C)Nc3nc(SC)nn32)cc1 (stereo unspecified) | active: 56.2 µM |  |
| CC(C)c1cnc2c(c1SCC(=O)Nc1ccc(C(N)=O)cc1)c(=O)n(C)c(=O)n2C | inactive |  |
| c1ccc(CN2CCN(C(c3ccccc3)c3ccccc3)CC2)cc1 | inconclusive: 1 µM [inhibitor, full curve, poor fit] |  |
| Oc1ccc(Nc2nc(-c3cccnc3)cs2)cc1 | active: 39.8 µM |  |
| O=C(C1CCN(C2CC(=O)N(c3cccc(Cl)c3)C2=O)CC1)N1CCCC1 (stereo unspecified) | inconclusive: 5.01 µM [inhibitor, single point] |  |
| CCNC(=O)NC(=O)C(C)OC(=O)C1CCN(S(=O)(=O)c2ccc(C)c(C)c2)CC1 (stereo unspecified) | inconclusive: 39.8 µM [inhibitor, partial curve, poor fit] |  |
| Cc1cc(OCc2nnc(SC(C)C(=O)O)n2-c2ccccc2)ccc1Cl (stereo unspecified) | inconclusive: 89.1 µM [inhibitor, single point] |  |
| C=CCNC(=S)NNC(=O)COc1ccc(Br)cc1 | active: 31.6 µM |  |

| Structure (SMILES) | Potency | activity, negative = inhibition |
| --- | --- | --- |
| CCCc1c(C(=O)OCC)sc(N)c1C#N |  | inconclusive: -93.5% [inhibitor] |
| O=C1c2ccccc2C(Nc2ccc(S(=O)(=O)N3CCCCC3)cc2)N1Cc1ccco1 (stereo unspecified) | inconclusive: 44.7 µM [inhibitor, partial curve] |  |
| COc1ccc(C2CC(c3cccc(C)c3)n3ncnc3N2)cc1 (stereo unspecified) | inconclusive: 31.6 µM [inhibitor, single point] |  |
| CCOC(=O)N1CCc2c(sc(NC(=O)CN3CCOCC3)c2C(=O)Nc2ccccc2)C1 | inconclusive: 44.7 µM [inhibitor, partial curve, poor fit] |  |
| CN(C)CCN(C(=O)c1ccc2ccccc2c1)c1nc2c(F)cc(F)cc2s1 | active: 50.1 µM |  |
| NNC(=O)Cn1nc(Cc2ccccc2)n(N)c1=O | inconclusive: 3.16 µM [inhibitor, single point] |  |
| COc1ccc(-c2nc3cnc(N(C)C)nc3n(Cc3ccc(F)cc3)c2=O)cc1 |  | inactive: 11.1% [at 0.501 µM] |
| Cc1ccc(OCc2nnc(SCC(=O)c3ccccc3)n2Cc2ccco2)cc1 | inconclusive: 39.8 µM [inhibitor, single point] |  |
| COc1ccc(OC)c(/C=C/C(=O)OCC(=O)NCc2ccco2)c1 | inconclusive: 28.2 µM [inhibitor, partial curve, poor fit] |  |
| CN1CCN(c2ccc([N+](=O)[O-])cc2C(=O)Nc2ccccc2)CC1 | inconclusive: 50.1 µM [inhibitor, partial curve, poor fit] |  |
| Cn1c(SCC(=O)NCCc2ccccc2)nnc1-c1ccncc1 | inconclusive: 2.51 µM [inhibitor, partial curve, poor fit] |  |
| Cc1cc2n(n1)C(c1c[nH]c3ccccc13)Nc1ccccc1-2 (stereo unspecified) |  | inconclusive: -71.1% [inhibitor] |
| COc1ccc(CCNC(=O)c2ccc3c(c2)N(Cc2cccc(Cl)c2)C(=O)c2ccccc2S3=O)cc1OC (stereo unspecified) | inconclusive: 39.8 µM [inhibitor, single point] |  |
| O=C(CCNC(=O)c1ccccc1Cl)Nc1nc(-c2ccc(F)cc2)cs1 | inconclusive: 79.4 µM [inhibitor, single point] |  |
| Cc1ccc(NC(=O)CCN2C(=O)NC3(CCCC3)C2=O)cc1 | inconclusive: 39.8 µM [inhibitor, partial curve, poor fit] |  |
| CCn1nc(C)cc1-c1nnc(Sc2ncc([N+](=O)[O-])s2)n1C | active: 6.31 µM |  |
| COCCNC(=O)/C(C#N)=C1\N=C(NC(=O)c2cccs2)c2ccccc21 | inactive |  |
| COc1cc(/C=C/C(=O)O)cc(S(=O)(=O)N2CCCc3ccccc32)c1OC | inconclusive: 15.8 µM [inhibitor, full curve] |  |
| O=C(c1cccc2ccccc12)N1CCN(CC2CC=CCC2)CC1 (stereo unspecified) | inconclusive: 1.12 µM [inhibitor, partial curve, poor fit] |  |
| COc1ccc(N(C(=O)c2cccc(C)c2)S(=O)(=O)c2ccc3c(c2)n(C)c(=O)n3C)cc1 | inconclusive: 15.8 µM [inhibitor, partial curve] |  |
| Cc1ccc(NC(=O)Nc2cccs2)c(C)c1 | inconclusive: 28.2 µM [inhibitor, single point] |  |
| O=C(CSc1cccc2cccc(Cl)c12)OCC(=O)N1CCN(C(=O)c2ccco2)CC1 | active: 79.4 µM |  |

| Structure (SMILES) | Potency | activity, negative = inhibition |
| --- | --- | --- |
| CCCCS(=O)(=O)/C=C/[C@H]1[C@H](S(=O)(=O)CCCC)[C@H]2C=C[C@@H]1C2 | inconclusive: 39.8 µM [inhibitor, single point] |  |
| CN(CC(=O)Nc1ccc(Cl)cc1)C(=O)COc1ncnc2ccccc12 | inconclusive: 6.31 µM [inhibitor, single point] |  |
| Cc1ccc(S(=O)(=O)N2CCc3ccccc3C2)cc1C | inactive |  |
| O=C(NCCCn1ccnc1)c1cc(C2CC2)on1 | inactive |  |
| COc1ccc(C2C(C(=O)N3CCOCC3)=C(C)NC3=C2C(=O)CC(C)(C)C3)cc1O (stereo unspecified) | inconclusive: 5.62 µM [inhibitor, partial curve, poor fit] |  |
| CN1CCN(C(=O)c2ccc3c(c2)N(Cc2ccc(Cl)cc2)C(=O)c2ccccc2S3(=O)=O)CC1 | inconclusive: 7.94 µM [inhibitor, partial curve, poor fit] |  |
| Cc1cccc(NS(=O)(=O)c2ccc3c(c2)CCN3C(=O)C2CC2)c1C | inactive |  |
| O=C(COC(=O)c1ccccc1)NCC1CCCO1 (stereo unspecified) |  | inactive: -19% [at 12.7 µM] |
| Cc1ccc(S(=O)(=O)Nc2ccc(NC(=O)CN3CCCCC3)cc2)cc1 |  | inconclusive: -68.1% [inhibitor] |
| O=C(C[n+]1ccccc1)N/N=C/c1ccco1 | inconclusive: 70.8 µM [inhibitor, single point] |  |
| COc1cc2ccccc2cc1C(=O)NCC(c1cccs1)N(C)C (stereo unspecified) | inconclusive: 70.8 µM [inhibitor, partial curve] |  |
| Cc1ccn2cc(C(=O)Nc3ccc4c(c3)OCCO4)nc2c1 | inconclusive: 56.2 µM [inhibitor, partial curve, poor fit] |  |
| Cc1c(C(=O)/C=C/N(C)C)nnn1-c1ccc(F)c(Cl)c1 | inconclusive: 50.1 µM [inhibitor, partial curve] |  |
| COc1cc(OC)c(OC)cc1/C=N/n1c(-c2n[nH]c3c2CCC3)n[nH]c1=S | active: 1.58 µM |  |
| CCCCn1c(N)c(N(CC(C)C)C(=O)c2ccc(-c3ccc([N+](=O)[O-])cc3)o2)c(=O)[nH]c1=O | active: 39.8 µM |  |
| CC(C)(O[C@@H]1O[C@H](CO)[C@@H](O)[C@H](O)[C@H]1O)[C@H]1Cc2cc3ccc(=O)oc3cc2O1 | inconclusive: 89.1 µM [inhibitor, single point] |  |
| Cn1ncc(C#N)c1/N=C/N1CCCCCC1 | inconclusive: 89.1 µM [inhibitor, single point] |  |
| Cc1cc(C)nc(NC(=O)c2cc(-c3ccc(C)s3)nc3ccccc23)c1 | inactive |  |
| CCOC(=O)c1c(C)n(C)c2ccc(OCC(N)=O)cc12 | inactive |  |
| Cc1cc(Cl)ccc1OCCCC(=O)N1CCOCC1 | inconclusive: 70.8 µM [inhibitor, partial curve, poor fit] |  |
| O=C(COC(=O)CCCc1nc2ccccc2s1)NC(=O)NCc1ccco1 | inconclusive: 44.7 µM [inhibitor, partial curve, poor fit] |  |
| Cc1cc(C)c2c(CN3CCN(Cc4ccccc4)CC3)cc(=O)oc2c1 | inconclusive: 79.4 µM [inhibitor, single point] |  |

From PubChem BioAssay AID504332 (National Center for Advancing Translational Sciences (NCATS), 2011)
